Reference: article PMC7819943, “Rice protein-binding microarrays: a tool to detect cis-acting elements near promoter regions in rice”
The other results are listed elsewhere or left out.

biological target: T1, OsWOX13 (Oryza sativa, UniProt Q5QMM3 1-267); test: protein-binding microarray (RPBM); PBS, 2% BSA, 51.3 ng/ul salmon testes DNA, 50 uM zinc acetate, 200 nM TF, 25 C, 1 h; high values mean tight binding; settings: protein: recombinant; tags: N-terminal polyhistidine and DsRed monomer fusion (pET32a); label: CyDye5-dUTP incorporated in the synthesized complementary strand; 3' TTTTT single-stranded linker to array surface; dsDNA, one strand shown
T1 sequence: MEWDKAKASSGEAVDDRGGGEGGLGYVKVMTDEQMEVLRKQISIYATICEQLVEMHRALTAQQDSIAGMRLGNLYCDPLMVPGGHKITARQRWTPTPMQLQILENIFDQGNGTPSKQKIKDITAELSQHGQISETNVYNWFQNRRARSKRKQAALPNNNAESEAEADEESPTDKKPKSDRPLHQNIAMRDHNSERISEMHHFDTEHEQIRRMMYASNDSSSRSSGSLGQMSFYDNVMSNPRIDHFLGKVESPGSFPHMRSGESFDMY
Procedure, shortened: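 Polyhistidine-tagged DsRed fusions of transcription factors, joined at the N-terminus, were expressed in E. coli BL21-CodonPlus and isolated on Ni–NTA. They were incubated at 200 nM for 1 h at 25 °C on a custom Agilent array, double-stranded and BSA-blocked, in PBS with 2% BSA, salmon testes DNA and 50 µM zinc acetate. The binding signal is per-feature fluorescence intensity (arbitrary units) read on an Axon 4000B scanner after washing.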

Sequence | binding signal
ACGATGGTAAATTATAACGTAAAATATTAGCCACTGAGTGCGGAGTCACCTAGTGCAG | 5240 fluorescence intensity (a.u.)
AAAATAGACTTATTTTCACTATATATATGTCACCAGCCCACGGAGTCACCTAGTGCAG | 4200 fluorescence intensity (a.u.)
TGATTGATTATTCCGTAATCTGTAGCTAATCAGATCGGATCGGAGTCACCTAGTGCAG | 39800 fluorescence intensity (a.u.)
AAATCCCACTAATTTGTATATATTTTACCGCGAAGAGATTCGGAGTCACCTAGTGCAG | 7870 fluorescence intensity (a.u.)
TATAATTTCACATCACATATTACTCCATCTGTCCGAAAATCGGAGTCACCTAGTGCAG | 3230 fluorescence intensity (a.u.)
GCTTCAATCTATTAATATTGTTAAGAGAGGGTGAAAAGGACGGAGTCACCTAGTGCAG | 13300 fluorescence intensity (a.u.)
CTTTGTGATTAATTAATGTGCAACATAGTTTGGTTAATTCCGGAGTCACCTAGTGCAG | 17400 fluorescence intensity (a.u.)
TAAATTGATGGGACTGGGCCTAGCTAACTGACTAGGCCTACGGAGTCACCTAGTGCAG | 41800 fluorescence intensity (a.u.)
GTTCTTGATGGAATTGCTGTTCATTATTCAGATTTCAGAACGGAGTCACCTAGTGCAG | 9940 fluorescence intensity (a.u.)
AAACTAATTTTACAAATAATTCGTCACCAAAACTTATTTACGGAGTCACCTAGTGCAG | 7530 fluorescence intensity (a.u.)
TTCACCAATCACCACAAGCTCCCCACTAAACCCGGGAGCTCGGAGTCACCTAGTGCAG | 19900 fluorescence intensity (a.u.)
CTAAACAGAAGGCACTGGTCAGTGTTTTGTTTTCTGAAGTCGGAGTCACCTAGTGCAG | 5050 fluorescence intensity (a.u.)
AGCCTAATTGCTTCATGATTTAACAATGTAGTGCTACAGTCGGAGTCACCTAGTGCAG | 52100 fluorescence intensity (a.u.)
GCTTGATGACCAAGTATATATAAACATGTCAGTGATTATTCGGAGTCACCTAGTGCAG | 5670 fluorescence intensity (a.u.)
ATGATTAATTATTATTTTAGTGATATGCGATATACTCGTGCGGAGTCACCTAGTGCAG | 65000 fluorescence intensity (a.u.)
TTATACAATCAAATATTTAATTGTATACATGAAGCTTGTGCGGAGTCACCTAGTGCAG | 25400 fluorescence intensity (a.u.)
TGGCTGTTAACTGGGAGATATAGATTCCTTTCCCGATTGACGGAGTCACCTAGTGCAG | 7080 fluorescence intensity (a.u.)
AAATTTAAGTAATTATTAATTCTTTTCCTATCATTTGATTCGGAGTCACCTAGTGCAG | 7910 fluorescence intensity (a.u.)
ATAATGAAACTATTCCAATCATAGATGAATTCTGTTGCTTCGGAGTCACCTAGTGCAG | 15500 fluorescence intensity (a.u.)
ATAAACCAATATATTTATCAATCATAAGATTAATATTTTACGGAGTCACCTAGTGCAG | 7800 fluorescence intensity (a.u.)
TGGTGCTTTTGTTATTGATGGAACAGTGGAAGATGGTGCTCGGAGTCACCTAGTGCAG | 3380 fluorescence intensity (a.u.)
TGAGTTGTGATATATTAATTGAGTTTGGGCAGGCATGGCCCGGAGTCACCTAGTGCAG | 7790 fluorescence intensity (a.u.)
TTAAATTATATAAATTTATAGAAATTCATGATCAAAGATTCGGAGTCACCTAGTGCAG | 22400 fluorescence intensity (a.u.)
CCATTAATTAAGAGTACCATATATATATATATATACAGTGCGGAGTCACCTAGTGCAG | 18600 fluorescence intensity (a.u.)
CTATAATTATGATGTGGCTTTATGAGAGAAGATAAATTAGCGGAGTCACCTAGTGCAG | 23500 fluorescence intensity (a.u.)
GCCTTGCAGGATTGGCCAATTTAATTTATGGGCCTTCCACCGGAGTCACCTAGTGCAG | 16600 fluorescence intensity (a.u.)
TTTGATTTGGAGGAAGAGGAGAGGGTGGTGTTAGGTGAAACGGAGTCACCTAGTGCAG | 12400 fluorescence intensity (a.u.)

Sequence | binding signal
ACGAGTACTACTGTGATTAGAAATCTCGGCCCATAGAAAGCGGAGTCACCTAGTGCAG | 3430 fluorescence intensity (a.u.)
CATAAGTGATGATCACATCCAAGCTGCCATGGCCAATTGCCGGAGTCACCTAGTGCAG | 5540 fluorescence intensity (a.u.)
ATCCAATCTATGCTAAATGGACTAGGGTTTTACCTCACTCCGGAGTCACCTAGTGCAG | 12000 fluorescence intensity (a.u.)
AGTTAATACAGCTGATTAGCAATGCAGCTTAACCAAAGTACGGAGTCACCTAGTGCAG | 10500 fluorescence intensity (a.u.)
TATGATTTGCGGTCATTGGCAAAGTTGACTTTATTACTAACGGAGTCACCTAGTGCAG | 36600 fluorescence intensity (a.u.)
CGATGACATTAAAATTAAATTTTAGGTAAAATATTATATTCGGAGTCACCTAGTGCAG | 9200 fluorescence intensity (a.u.)
CTAAAAGTAATTTATATATATGATAAAAGTAACTTAAGTACGGAGTCACCTAGTGCAG | 4920 fluorescence intensity (a.u.)
TAAATCAGTTTGACTTTGATTAAACTCAAAACGTCTTATACGGAGTCACCTAGTGCAG | 11300 fluorescence intensity (a.u.)
ATAATCATAATTATATTTTAAAGTTCAACATGTAAGCATGCGGAGTCACCTAGTGCAG | 26500 fluorescence intensity (a.u.)
TACTGAAATAATTATTGAACGTAGAAATTTTGGATCTGTTCGGAGTCACCTAGTGCAG | 10400 fluorescence intensity (a.u.)
TACTCTAAATTGGATAGACATTTCTTACAGTGTACCGACACGGAGTCACCTAGTGCAG | 24100 fluorescence intensity (a.u.)
TATTAAACGAATTATCACAAAATTATAGATTTATCATGTTCGGAGTCACCTAGTGCAG | 3760 fluorescence intensity (a.u.)
GTAAATTGCAAGACAAATCTTTTAAACCTAGTTGTGTCATCGGAGTCACCTAGTGCAG | 20500 fluorescence intensity (a.u.)
ACCTGGATTGAGTTTTGTGCATGAATTTGAGTGGTAAGGGCGGAGTCACCTAGTGCAG | 4600 fluorescence intensity (a.u.)
ATGATAATTAAAGTTGTAGGTGGTATGACCTTAATTAGTTCGGAGTCACCTAGTGCAG | 16900 fluorescence intensity (a.u.)
TCTAATTGCAGACATGCTTGGCTTCATGCATTGAACAGGTCGGAGTCACCTAGTGCAG | 20300 fluorescence intensity (a.u.)
GTCCAAACTTTGACATCTCAATCTTCACCGAAACAGCAAACGGAGTCACCTAGTGCAG | 3860 fluorescence intensity (a.u.)
ATTGCATGCAACTAATTGAGACTTCCTTTGAAATGGGGTGCGGAGTCACCTAGTGCAG | 7120 fluorescence intensity (a.u.)
AACAGTTGAATGACTAATTATACCCGGTTTTATATGGATGCGGAGTCACCTAGTGCAG | 14800 fluorescence intensity (a.u.)
ATTTTGGTTGATTTGTAAACAGAGGGATTAATTTGTGCATCGGAGTCACCTAGTGCAG | 15400 fluorescence intensity (a.u.)
ATTTTGATGATCAGCGGTCTAGATTTACCGCTACAATGATCGGAGTCACCTAGTGCAG | 3930 fluorescence intensity (a.u.)
ATGTTTGATTTTAAAATCTCAATGACAATAAAGAAGGGTGCGGAGTCACCTAGTGCAG | 9130 fluorescence intensity (a.u.)
TTTGATTTGACACTTGTTTTGTATCATCTATAGGCATAGGCGGAGTCACCTAGTGCAG | 36300 fluorescence intensity (a.u.)
CGATGTTAAATTGTTAATCTACCAGCAGCTCCAAATTCAACGGAGTCACCTAGTGCAG | 3510 fluorescence intensity (a.u.)
TAAATTGAGGGATGACATATATCTTGTTTTACGGTTGGGGCGGAGTCACCTAGTGCAG | 13500 fluorescence intensity (a.u.)
TCAACTAACAATAATTACATATTTAATCGTAGAAGCATACCGGAGTCACCTAGTGCAG | 8390 fluorescence intensity (a.u.)
TTACTATATGATTAAGATTTTGTTATGAAATTGGCAGCTTCGGAGTCACCTAGTGCAG | 8420 fluorescence intensity (a.u.)
